Results from PubChem BioAssay AID2675 (National Center for Advancing Translational Sciences (NCATS), 2010).
Among all 280,000 compounds or so, about 100 (0.036%) were called active. The inconclusive results got no clear call from the source; some entries with a clear call stand among them for comparison. Calls come from the whole dose curve; as a rule, active = well fitted inhibition curve with a large enough effect in the signal ratio, with a control signal flat (not every such curve was filed as active); inconclusive = small, poorly fitted or top-dose-only effect, or effect the other way, or a change in a side signal; inactive = no such curve, though single readings can be large or run the other way; the % refers to the signal ratio. Potencies beside an inconclusive call are fits to weak or partial responses and may not hold up. “Side channel” marks fits to a control or component signal instead of the main read-out.
% is set by controls: 0 for no effect and ±100 for the full control effect; potency is the fitted concentration of half-maximal effect; tags give direction and shape of the fitted curve or compound fluorescence and quenching.

The compounds below were run against Muscleblind-like protein 1 (Homo sapiens) (UniProt Q9NR56) (assay: qHTS Assay for Inhibitors of MBNL1-poly(CUG) RNA binding). Conditions: TR-FRET MBNL1-His/biotin-(CUG)12 binding, 665/545 ratio; activity change, negative = inhibition: at 57.5 µM (top of the series).
Sequence of UniProt Q9NR56 (Q9NR56 whole entry, looked up): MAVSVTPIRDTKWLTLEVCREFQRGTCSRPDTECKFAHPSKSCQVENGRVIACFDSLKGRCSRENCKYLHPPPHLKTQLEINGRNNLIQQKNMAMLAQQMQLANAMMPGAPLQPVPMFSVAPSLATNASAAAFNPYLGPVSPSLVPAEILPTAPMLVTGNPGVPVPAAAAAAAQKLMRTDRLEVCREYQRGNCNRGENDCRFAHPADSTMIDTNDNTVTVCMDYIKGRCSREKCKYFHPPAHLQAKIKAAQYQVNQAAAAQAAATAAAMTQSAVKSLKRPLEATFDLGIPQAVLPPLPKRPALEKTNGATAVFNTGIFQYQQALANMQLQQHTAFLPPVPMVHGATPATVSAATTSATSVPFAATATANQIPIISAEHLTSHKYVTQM
How it was run: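 Compound titration spanned 92 nM–58 uM against the MBNL1-His/biotin-(CUG)12 complex. After 60 min at room temperature with 5 nM streptavidin-XL665 and 0.055 ng/ul terbium anti-His, ratiometric 665/545 nm emission (Ex 340 nm) normalized to controls.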
`COc1ccccc1N1C(=O)CC(N2CCN(c3ccc(Cl)cc3)CC2)C1=O` (stereo unspecified) was tested, and the Potency was inconclusive: 25.1 µM [quencher, side channel, single point].
`CC(=O)NCC(=O)OCc1ccc([N+](=O)[O-])cc1` was tested, and the Potency was inconclusive: 17.8 µM [quencher, side channel, single point].
In the case of `COc1ccc(C)cc1Nc1n[n+](-c2ccccc2)c(-c2cc([N+](=O)[O-])cc(OC)c2O)s1`, the “activity change, negative = inhibition” value is reported as inactive: 12.3%.
With `Cc1nc2sc(C(c3cccs3)N3CCN(C(=O)c4ccco4)CC3)c(O)n2n1` (stereo unspecified) the Potency was inconclusive: 28.2 µM [quencher, side channel, single point].
`CC(C)(C)C(=O)N1CCC[C@H]1C(O)(c1ccccc1)c1ccccc1` was tested, and the Potency was inconclusive: 0.1 µM [fluorescent, side channel, full curve, poor fit].
For `O=C(CSc1nnc(-c2ccco2)c(-c2ccco2)n1)Nc1ccccc1`, the Potency was inconclusive: 14.1 µM [quencher, partial curve].
In the case of `O=C(O)C1Nc2c(C(F)(F)F)ccc(Cl)c2C2C=CCC12` (stereo unspecified), the “activity change, negative = inhibition” value is reported as inactive: -0.187%.
For `COc1ccc(C(=O)/C=C/Nc2ccc(C)cn2)cc1OC`, the Potency was inconclusive: 3.98 µM [quencher, side channel, full curve].
For `Cc1ccc(C2(CC(=O)Nc3nccs3)CCOC(C(C)C)C2)cc1` (stereo unspecified), the activity change, negative = inhibition was inconclusive: -16.9% [phenotype inactive].
For `COC(=O)c1[nH]c(C)c(/C(O)=C2\C(=O)C(=O)N(CCCN3CCOCC3)C2c2ccccn2)c1C` (stereo unspecified), the Potency was inconclusive: 28.2 µM [quencher, side channel, partial curve].
With `Nc1c(C(=O)Nc2ccc(F)cc2)sc(=S)n1-c1ccccc1F` the “activity change, negative = inhibition” value was inactive: -0.406%.
`O=c1c2oc3ccccc3c2[nH]c(=S)n1-c1ccc(F)cc1` was tested, and the Potency was inconclusive: 28.2 µM [fluorescent, side channel, partial curve].
With `COCC1CCN(Cc2nc(-c3cccs3)no2)C1` (stereo unspecified) the Potency was inconclusive: 25.1 µM [quencher, side channel, single point].
For `CCCCN1C(C)=CC(=C2C(=O)c3ccccc3C2=O)C=C1C`, the Potency was inconclusive: 7.08 µM [quencher, side channel, partial curve].
`Cc1c(/C=N/NC(=O)c2ccc(O)cc2)c2ccccn2c1C(=O)c1ccc(F)cc1` was tested, and the “activity change, negative = inhibition” value was inactive: 10.2%.
For `CCN1C=C(Cc2ccc(F)cc2)C2=C(C1)C(c1ccc(F)cc1)C(C#N)=C(N)O2` (stereo unspecified), the “activity change, negative = inhibition” value was inactive: 13.6%.
In the case of `COCCN(CCOC)Cc1c(O)ccc2c1O/C(=C\c1ccco1)C2=O`, the Potency is reported as inconclusive: 39.8 µM [quencher, side channel, single point].
For `CC(C)(C)c1ccccc1OCCCCCNCCO`, the “activity change, negative = inhibition” value was inactive: 8.82%.
In the case of `Cc1cc(-c2nnc(CCC(=O)N3CCN(Cc4cccnc4)CC3)o2)c(C)o1`, the Potency is reported as inconclusive: 14.1 µM [quencher, side channel, partial curve].
For `CCOC(=O)c1nc(-c2ccc(OC)c(OC)c2)cnc1C#N`, the Potency was inconclusive: 2 µM [quencher, side channel, partial curve].
For `CC1=NCCN1S(=O)(=O)c1cccc([N+](=O)[O-])c1`, the Potency was inconclusive: 15.8 µM [quencher, side channel, partial curve].
With `COc1ccc(NC(=O)CN(C)S(=O)(=O)c2cccc3nsnc23)cc1` the Potency was inconclusive: 7.08 µM [quencher, side channel, partial curve].
With `O=C(N/N=C/c1ccco1)c1cccc(N2CCCC2=O)c1` the Potency was inconclusive: 25.1 µM [quencher, side channel, single point].
`COc1cc2c(cc1OC)CN(C(=O)c1cccc([N+](=O)[O-])c1)CC2` was tested, and the Potency was inconclusive: 10 µM [quencher, side channel, partial curve].
`COc1ccc(C(=O)c2nc3c(n2O)CCCC3)cc1OC` was tested, and the Potency was inconclusive: 39.8 µM [quencher, side channel, single point].
For `COc1cccc(-c2nc3ccccc3s2)c1O`, the Potency was inconclusive: 35.5 µM [fluorescent, side channel, single point].
With `COc1ccc(C2(CNC(=O)CCC(=O)O)CCCC2)cc1` the “activity change, negative = inhibition” value was inactive: -7.66%.
For `CCOc1nc2ccccc2cc1/C=C/C(=O)O`, the Potency was inconclusive: 22.4 µM [quencher, side channel, partial curve].
`COc1ccc2nc(-c3ccccn3)[nH]c2c1` was tested, and the “activity change, negative = inhibition” value was inactive: -7.09%.
`NC(=O)c1nsc(C(=O)N(c2ccccc2)C(C(=O)NCc2ccc(F)cc2)c2ccc(O)cc2)c1N` (stereo unspecified) was tested, and the Potency was inconclusive: 39.8 µM [fluorescent, side channel, single point].
With `O=[N+]([O-])c1ccc(NCc2ccc3c(c2)OCO3)cc1` the Potency was inconclusive: 22.4 µM [quencher, side channel, single point].
With `CSc1nc2ccc(NC(=O)C3CC(=O)N(Cc4ccco4)C3)cc2s1` (stereo unspecified) the Potency was inconclusive: 79.4 µM [inhibitor, partial curve].
With `CCOC(=O)c1c(-c2ccc(-c3ccccc3)cc2)csc1NC(=O)CCN1CCOCC1` the “activity change, negative = inhibition” value was inactive: 15.2%.
`Cn1ccnc1SCC(=O)Nc1ccc(F)c([N+](=O)[O-])c1` was tested, and the Potency was inconclusive: 25.1 µM [quencher, side channel, partial curve].
With `CC1CN(CC(=O)Nc2ccc([N+](=O)[O-])cc2Br)CC(C)O1` (stereo unspecified) the Potency was inconclusive: 11.2 µM [quencher, side channel, partial curve].
`CCOC(=O)CC(=O)CSc1nc(CC)c(C)cc1C#N` was tested, and the Potency was inconclusive: 11.2 µM [quencher, side channel, partial curve].
`O=C1C(=O)N(CCCN2CCOCC2)C(c2cccs2)/C1=C(/O)c1ccc2c(c1)OCO2` (stereo unspecified) was tested, and the Potency was inconclusive: 39.8 µM [quencher, side channel, single point].
`CC1(C)CC(=O)C(N=Nc2ccc(F)cc2)=C(O)C1` was tested, and the Potency was inconclusive: 2.82 µM [quencher, side channel, full curve].
For `Cc1nc(=S)c2ccccc2[nH]1`, the Potency was inconclusive: 17.8 µM [quencher, side channel, partial curve].
In the case of `CC(C)(C)C(=O)Nc1ccccc1-c1nc2ccccc2[nH]c1=O`, the Potency is reported as inconclusive: 25.1 µM [quencher, side channel, partial curve].
With `COC(=O)c1ccncc1C(=O)Nc1ccc(OC)cc1` the Potency was inconclusive: 14.1 µM [quencher, side channel, partial curve].
In the case of `CCn1c(CNc2nc3ccccc3n2C(C)C)nc2ccccc21`, the “activity change, negative = inhibition” value is reported as inactive: -5.71%.
With `COCc1nnc(NC(=O)c2cc(C(=O)OC)cc([N+](=O)[O-])c2)s1` the Potency was inconclusive: 7.08 µM [quencher, side channel, partial curve].
`Cc1ccc(S(=O)(=O)NC2CCCCCCC2)cc1` was tested, and the “activity change, negative = inhibition” value was inactive: -8.99%.
With `CC(C)C(C(=O)O)N1C(=O)/C(=C/C=C/c2ccco2)SC1=S` (stereo unspecified) the Potency was inconclusive: 28.2 µM [quencher, side channel, single point].
`Cc1noc(C)c1S(=O)(=O)N1CCN(Cc2ccc3c(c2)OCO3)CC1` was tested, and the Potency was inconclusive: 39.8 µM [quencher, side channel, partial curve, poor fit].
With `O=C(NCc1ccc(F)cc1)C1CCN(C(=O)NCc2ccccc2)CC1` the “activity change, negative = inhibition” value was inactive: -5.76%.
With `CNc1cc([N+](=O)[O-])ccc1OCc1ccccc1` the Potency was inconclusive: 20 µM [quencher, side channel, partial curve].
With `CCCS(=O)(=O)N1CCN(c2cc3c(cc2[N+](=O)[O-])n(C)c(=O)n3C)CC1` the Potency was inconclusive: 12.6 µM [quencher, side channel, partial curve].
`Cc1ccc(/C=N/NC(=O)NC2CCCCC2)o1` was tested, and the “activity change, negative = inhibition” value was inactive: 6.86%.
With `NC(=S)N=Nc1ccc(NN=C(N)N)cc1` the Potency was inconclusive: 17.8 µM [quencher, side channel, partial curve].
In the case of `COc1ccccc1NC(=O)CSc1nc(N)c(C#N)cc1C#N`, the Potency is reported as inconclusive: 39.8 µM [fluorescent, single point].
`COCCOc1ccc(C(F)(F)F)cc1NC(=O)COC(=O)c1cc([N+](=O)[O-])ccc1N1CCOCC1` was tested, and the Potency was inconclusive: 15.8 µM [quencher, side channel, partial curve].
In the case of `CC(C(=O)O/N=C(\N)c1ccccn1)c1ccc([N+](=O)[O-])cc1` (stereo unspecified), the Potency is reported as inconclusive: 17.8 µM [quencher, side channel, partial curve].
With `COc1ccc(-c2oc3cccnc3c2C#CCO)cc1` the Potency was inconclusive: 35.5 µM [quencher, side channel, single point].
In the case of `COc1cc(C2C(C(C)=O)=C(O)C(=O)N2c2ccc(Br)cn2)ccc1O` (stereo unspecified), the Potency is reported as inconclusive: 31.6 µM [quencher, side channel, single point].
With `O=c1c(-c2ccco2)[n+]([O-])c2ccccc2n1OCc1ccccc1[N+](=O)[O-]` the Potency was inconclusive: 7.94 µM [quencher, side channel, partial curve].
For `CCCc1nc(SCC(=O)Nc2nc3c(s2)CCCC3)c2ccccc2n1`, the “activity change, negative = inhibition” value was inactive: -16.4%.
In the case of `Cc1cc(C)n(Cc2ccc(C(=O)N/N=C/c3ccc(-c4ccc([N+](=O)[O-])cc4)o3)o2)n1`, the Potency is reported as inconclusive: 14.1 µM [quencher, side channel, partial curve].
`CCOC(=O)C1(CCCc2ccccc2)CCN(CCCn2cccn2)CC1` was tested, and the “activity change, negative = inhibition” value was inactive: 1.93%.
For `O=C1C=C(c2ccccc2)CC(c2cccs2)C1n1cnc([N+](=O)[O-])c1` (stereo unspecified), the Potency was inconclusive: 39.8 µM [quencher, side channel, partial curve].
